{"source": "PubChem BioAssay (NCI)", "assay_in_all_cases": "growth of human tumour cells (NCI), 48 h", "key": {"NCI-H226 lung": {"system": "NCI-H226 lung"}, "UACC-257 melanoma": {"system": "UACC-257 melanoma"}, "HOP-92 NSCLC": {"system": "HOP-92 NSCLC"}, "CCRF-CEM leukemia": {"system": "CCRF-CEM leukemia"}, "SR leukemia": {"system": "SR leukemia"}, "NCI-H23 lung": {"system": "NCI-H23 lung"}}, "note": "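A five-concentration, 48-hour dose response in 96-well plates underlies each endpoint, interpolated linearly between surrounding concentrations. The concentration for 50% growth inhibition is given as GI50. At the TGI there is no net growth.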 Activity calls are given as the source filed them."}
{"smiles": "Fc1ccc(-c2ncn(C3CCNCC3)c2-c2ccnc(Oc3ccc(Cl)cc3)n2)cc1", "values": [{"measurement": "GI50", "setting": "NCI-H226 lung", "value": "inactive"}, {"measurement": "TGI", "setting": "NCI-H226 lung", "value": 13.6, "unit": "µM"}, {"measurement": "GI50", "setting": "UACC-257 melanoma", "value": "inactive"}, {"measurement": "TGI", "setting": "UACC-257 melanoma", "value": 7.58, "unit": "µM"}, {"measurement": "GI50", "setting": "HOP-92 NSCLC", "value": "inactive"}, {"measurement": "TGI", "setting": "HOP-92 NSCLC", "value": 9.7, "unit": "µM"}, {"measurement": "GI50", "setting": "CCRF-CEM leukemia", "value": "inactive"}, {"measurement": "TGI", "setting": "CCRF-CEM leukemia", "value": 16.9, "unit": "µM"}, {"measurement": "GI50", "setting": "SR leukemia", "value": "inactive"}, {"measurement": "TGI", "setting": "SR leukemia", "value": 11, "unit": "µM"}, {"measurement": "GI50", "setting": "NCI-H23 lung", "value": "inactive"}, {"measurement": "TGI", "setting": "NCI-H23 lung", "value": "> 25", "unit": "µM"}]}
